# In the supplement of paper PMC10037445:
# In all, about 2,900 compounds were measured (“NF-kB SEAP reporter activity, fold change vs agonist alone”: median about 0.99, highest 2% from about 2.6 on). This is one part of the list.
# Experiments:
# [1] = tested on: RAW-Dual; assay: NF-kB SEAP reporter activity, fold change vs agonist alone; cytotoxicity flag (confluency mask): not cytotoxic; higher = enhanced NF-kB activity
# Method in brief: (§1)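 Reporter activity is given as fold change relative to agonist-alone wells. To measure it, 50 nL of library stock was pin-tooled onto RAW-Dual macrophages (50,000 cells/well, DMEM, 384-well plates), a PRR agonist followed 1 h later, and cells stayed at 37 °C, 5% CO2. Twenty hours on, supernatant was assayed for IRF (QuantiLuc luminescence) and NF-κB (QuantiBlue, 620 nm absorbance), and wells under 70% of agonist-control IncuCyte confluency in both mask sets were marked cytotoxic.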
# [2] = tested on: RAW-Dual; assay: NF-kB SEAP reporter activity, fold change vs agonist alone; higher = enhanced NF-kB activity; conditions: library stock concentration (final ~1000-fold dilution): 10 mM, cytotoxicity flag (confluency mask): not cytotoxic
# Method in brief: as §1
# [3] = agonist: ODN 1826 (TLR9) 0.5 ug/mL
# [4] = agonist: Pam2CSK4 (TLR2/6) 0.1 ug/mL
# [5] = agonist: Pam3CSK4 (TLR2/1) 0.1 ug/mL
compound,measurement,setting,value
Cc1cccc(C)c1N(CC(=O)Nc1ccc(-c2ncon2)cc1)C(=O)C1CCS(=O)(=O)CC1 (library stock concentration (final ~1000-fold dilution): 10 mM),NF-kB SEAP reporter activity,[1]; agonist: LPS (TLR4) 0.1 ug/mL,1.13
same,NF-kB SEAP reporter activity,[1]; [3],1.03
same,NF-kB SEAP reporter activity,[1]; [4],1.06
same,NF-kB SEAP reporter activity,[1]; [5],1.02
Cc1cccc(C)c1N(CC(=O)Nc1ccc(-c2ncon2)cc1)C(=O)C1CCS(=O)(=O)CC1,NF-kB SEAP reporter activity,[2]; agonist: Imiquimod (TLR7) […],0.957
same,NF-kB SEAP reporter activity,[2]; agonist: MPLA (TLR4) […],1.04
COc1ccc(/C=C\c2cc(OC)c(OC)c(OC)c2)cc1O (library stock concentration (final ~1000-fold dilution): 10 mM),NF-kB SEAP reporter activity,[1]; agonist: LPS (TLR4) 0.1 ug/mL,4.68
same,NF-kB SEAP reporter activity,[1]; [3],2.84
same,NF-kB SEAP reporter activity,[1]; [4],1.69
same,NF-kB SEAP reporter activity,[1]; [5],2.62
COc1ccc(/C=C\c2cc(OC)c(OC)c(OC)c2)cc1O,NF-kB SEAP reporter activity,[2]; agonist: Imiquimod (TLR7) […],1.63
same,NF-kB SEAP reporter activity,[2]; agonist: MPLA (TLR4) […],2.07
O=C(c1ccccc1)C(O)O,NF-kB SEAP reporter activity,[2]; agonist: MPLA (TLR4) […],1.19
O=C(c1ccccc1)C(O)O (library stock concentration (final ~1000-fold dilution): 10 mM),NF-kB SEAP reporter activity,[1]; agonist: LPS (TLR4) 0.1 ug/mL,1.12
same,NF-kB SEAP reporter activity,[1]; [3],1.04
same,NF-kB SEAP reporter activity,[1]; [4],1.14
same,NF-kB SEAP reporter activity,[1]; [5],1.07
C=CC(=O)Nc1ccc2ncnc(Nc3ccc(OCc4cccc(F)c4)c(Cl)c3)c2c1.Cc1ccc(S(=O)(=O)O)cc1 (library stock concentration (final ~1000-fold dilution): 10 mM),NF-kB SEAP reporter activity,[1]; agonist: LPS (TLR4) 0.1 ug/mL,0.275
same,NF-kB SEAP reporter activity,[1]; [3],0.575
same,NF-kB SEAP reporter activity,[1]; [4],0.254
same,NF-kB SEAP reporter activity,[1]; [5],0.377
C=CC(=O)Nc1ccc2ncnc(Nc3ccc(OCc4cccc(F)c4)c(Cl)c3)c2c1.Cc1ccc(S(=O)(=O)O)cc1,NF-kB SEAP reporter activity,[2]; agonist: Imiquimod (TLR7) […],0.818
same,NF-kB SEAP reporter activity,[2]; agonist: MPLA (TLR4) […],0.445
COc1cc(C(C)=O)ccc1OCCCN1CCC(c2noc3cc(F)ccc23)CC1,NF-kB SEAP reporter activity,[2]; agonist: Imiquimod (TLR7) […],0.951
same,NF-kB SEAP reporter activity,[2]; agonist: MPLA (TLR4) […],0.853
COc1cc(C(C)=O)ccc1OCCCN1CCC(c2noc3cc(F)ccc23)CC1 (library stock concentration (final ~1000-fold dilution): 10 mM),NF-kB SEAP reporter activity,[1]; agonist: LPS (TLR4) 0.1 ug/mL,1.15
same,NF-kB SEAP reporter activity,[1]; [3],0.717
same,NF-kB SEAP reporter activity,[1]; [4],1.13
same,NF-kB SEAP reporter activity,[1]; [5],0.978
Cn1c(=O)c(Oc2ccc(F)cc2F)cc2cnc(NC(CCO)CCO)nc21 (library stock concentration (final ~1000-fold dilution): 10 mM),NF-kB SEAP reporter activity,[1]; agonist: LPS (TLR4) 0.1 ug/mL,0.812
same,NF-kB SEAP reporter activity,[1]; [3],0.639
same,NF-kB SEAP reporter activity,[1]; [4],0.288
same,NF-kB SEAP reporter activity,[1]; [5],0.329
Cn1c(=O)c(Oc2ccc(F)cc2F)cc2cnc(NC(CCO)CCO)nc21,NF-kB SEAP reporter activity,[2]; agonist: Imiquimod (TLR7) […],0.559
same,NF-kB SEAP reporter activity,[2]; agonist: MPLA (TLR4) […],0.805
O=C(O)Cc1ccc(O)cc1 (library stock concentration (final ~1000-fold dilution): 10 mM),NF-kB SEAP reporter activity,[1]; agonist: LPS (TLR4) 0.1 ug/mL,1.18
same,NF-kB SEAP reporter activity,[1]; [3],1.08
same,NF-kB SEAP reporter activity,[1]; [4],1.08
same,NF-kB SEAP reporter activity,[1]; [5],0.947
O=C(O)Cc1ccc(O)cc1,NF-kB SEAP reporter activity,[2]; agonist: Imiquimod (TLR7) […],1.24
same,NF-kB SEAP reporter activity,[2]; agonist: MPLA (TLR4) […],1.06
CC(C(=O)O)c1cccc(C(=O)c2ccccc2)c1 (stereo unspecified) (library stock concentration (final ~1000-fold dilution): 10 mM),NF-kB SEAP reporter activity,[1]; agonist: LPS (TLR4) 0.1 ug/mL,1.02
same,NF-kB SEAP reporter activity,[1]; [3],1.01
same,NF-kB SEAP reporter activity,[1]; [4],1.11
same,NF-kB SEAP reporter activity,[1]; [5],1.19
CC(C(=O)O)c1cccc(C(=O)c2ccccc2)c1 (stereo unspecified),NF-kB SEAP reporter activity,[2]; agonist: Imiquimod (TLR7) […],0.866
same,NF-kB SEAP reporter activity,[2]; agonist: MPLA (TLR4) […],1.05
COc1cc2nc(N3CCN(C(=O)C4CCCO4)CC3)nc(N)c2cc1OC.Cl (stereo unspecified) (library stock concentration (final ~1000-fold dilution): 10 mM),NF-kB SEAP reporter activity,[1]; agonist: LPS (TLR4) 0.1 ug/mL,1
same,NF-kB SEAP reporter activity,[1]; [3],1.02
same,NF-kB SEAP reporter activity,[1]; [4],1.09
same,NF-kB SEAP reporter activity,[1]; [5],1.19
COc1cc2nc(N3CCN(C(=O)C4CCCO4)CC3)nc(N)c2cc1OC.Cl (stereo unspecified),NF-kB SEAP reporter activity,[2]; agonist: MPLA (TLR4) […],1.02
CCCCN(Cc1ccc(C(=O)NO)cc1)C(=O)Nc1ccccc1,NF-kB SEAP reporter activity,[2]; agonist: Imiquimod (TLR7) […],1.52
same,NF-kB SEAP reporter activity,[2]; agonist: MPLA (TLR4) […],2.9
CCCCN(Cc1ccc(C(=O)NO)cc1)C(=O)Nc1ccccc1 (library stock concentration (final ~1000-fold dilution): 10 mM),NF-kB SEAP reporter activity,[1]; agonist: LPS (TLR4) 0.1 ug/mL,6.63
same,NF-kB SEAP reporter activity,[1]; [3],2.5
same,NF-kB SEAP reporter activity,[1]; [4],1.18
same,NF-kB SEAP reporter activity,[1]; [5],1.73
Cn1c(=O)cc(C(=O)Nc2ccc3c(c2)OCCO3)c2ccccc21,NF-kB SEAP reporter activity,[2]; agonist: Imiquimod (TLR7) […],0.997
same,NF-kB SEAP reporter activity,[2]; agonist: MPLA (TLR4) […],0.999
Cn1c(=O)cc(C(=O)Nc2ccc3c(c2)OCCO3)c2ccccc21 (library stock concentration (final ~1000-fold dilution): 10 mM),NF-kB SEAP reporter activity,[1]; agonist: LPS (TLR4) 0.1 ug/mL,0.989
same,NF-kB SEAP reporter activity,[1]; [3],1.02
same,NF-kB SEAP reporter activity,[1]; [4],0.995
same,NF-kB SEAP reporter activity,[1]; [5],1.07
O=C(O)c1ccc(CSc2nc(-c3ccccc3)cc(N3CCN(c4ccccc4Cl)CC3)n2)cc1 (library stock concentration (final ~1000-fold dilution): 10 mM),NF-kB SEAP reporter activity,[1]; agonist: LPS (TLR4) 0.1 ug/mL,0.736
same,NF-kB SEAP reporter activity,[1]; [3],0.584
same,NF-kB SEAP reporter activity,[1]; [4],0.248
same,NF-kB SEAP reporter activity,[1]; [5],0.392
O=C(O)c1ccc(CSc2nc(-c3ccccc3)cc(N3CCN(c4ccccc4Cl)CC3)n2)cc1,NF-kB SEAP reporter activity,[2]; agonist: Imiquimod (TLR7) […],0.515
same,NF-kB SEAP reporter activity,[2]; agonist: MPLA (TLR4) […],0.868
CNC(=O)c1ccccc1Nc1nc(Nc2ccc(N3CCOCC3)cc2OC)ncc1Cl (library stock concentration (final ~1000-fold dilution): 10 mM),NF-kB SEAP reporter activity,[1]; agonist: LPS (TLR4) 0.1 ug/mL,0.332
same,NF-kB SEAP reporter activity,[1]; [3],0.296
same,NF-kB SEAP reporter activity,[1]; [4],0.134
same,NF-kB SEAP reporter activity,[1]; [5],0.246
CNC(=O)c1ccccc1Nc1nc(Nc2ccc(N3CCOCC3)cc2OC)ncc1Cl,NF-kB SEAP reporter activity,[2]; agonist: Imiquimod (TLR7) […],0.466
same,NF-kB SEAP reporter activity,[2]; agonist: MPLA (TLR4) […],0.594
